The values below come from the RNAGym collection of RNA variant scans (doi:10.1093/nar/gkz1192).

The source gives no read counts; variants with many changes may rest on few reads.

B1: CPEB3 Ribozyme (parent)
chain: UAACAGGGGGCCACAGCAGAAGCGUUCACGUCGCAGCCCCUGUCAGAUUCUGGUGAAUCUGCGAAUUCUGCUGUAUAUCUC

This data set covers variants of B1. As to the kind of experiment: self-cleavage, relative activity (ratio to wild type); higher = more cleavage; in vitro, sequencing. In outline:
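For each CPEB3 ribozyme variant, relative activity is its cleaved/total read fraction divided by the unmutated ribozyme's. Barcoded error-prone PCR libraries were transcribed by T7 RNA polymerase (5 hours, 37°C) and held in DNase I for 15 min before an EDTA stop, with cleavage occurring throughout. Template-switching reverse transcription and Illumina sequencing were used to read the RNAs. A 5-read minimum applied, and results are the mean of three batches.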
On to U1C C29G A47G C50A, for which the self-cleavage is 0.27. With U1C C12U A77U, the self-cleavage came out at 1.26. U1C U26A A45G: the self-cleavage came out at 0.56. Turning to U1C U43C U69C U74A, the self-cleavage amounted to 0.15. The figure for U1C G6A A13U G16C C34U U41A U80C is 0.03; for U1C G30A U76C it is 0.26; for U1C U49A U54G U80A it is 0.46. For U1C U69C U76C U78C, the self-cleavage worked out at 0.68. U1C U43C U67C U72A A75G: the self-cleavage came to 0.11.

For U1C G19U A35C U69C U80C, the self-cleavage is 0.06. For the variant U1C U25C U58C, the self-cleavage was determined as 0.05. Take U1C U25C A35G U43C A75G: the self-cleavage was 0.08. Regarding U1C U26C A57U U74G, the self-cleavage came to 0.19.

As to U1C G53U U72C, the self-cleavage came out at 1.21. The figure for U1C C11A A20G G24A U31C is 0.05; for U1C G24U A28G A65G A75G it is 0.07. As to U1C G6U U58A U66C U80C, the self-cleavage is 0.06.

In the case of U1C G8A U31C U41A U67G, the self-cleavage was found to be 0.22. The figure for U1C G9U C12U U60A is 0.05. The figure for U1C U54C U72C is 0.84. Take U1C G8A U78C: the self-cleavage turned out to be 0.32.

In the case of U1C C32G U43A A45U A57G, the self-cleavage came to 0.05. For U1C G8U U25C A45C A56G U60A, the self-cleavage came out at 0.17. Consider U1C C11A U25C A57U, for which the self-cleavage was 0.04. U1C C23G A45U U78C: the self-cleavage is 0.21.

For U1C U26C U54C A77G, the self-cleavage amounted to 0.5. As to U1C C29G A45G A57U U76C U80A, the self-cleavage worked out at 0.05. In the case of U1C U58C U67C U72A, the self-cleavage was determined as 0.17. Turning to U1C U25C U51A U54A, the self-cleavage was 0.07. The figure for U1C U25A U54C A75U is 0.06; for U1G A21G G30A U43G it is 0.05.

On to U1G A13G A18C C50U U60A, for which the self-cleavage was 0.13. As to U1C U31C A35G C40A U60C U66C U72C, the self-cleavage is 0.06. Regarding U1C G8U A20U G36A A57G U69C, the self-cleavage is 0.04. The figure for U1C G9U U43C U72C is 0.3; for U1C C39U U69A it is 0.37. As to U1C C44U U58C, the self-cleavage amounted to 0.47.

For the variant U1C U69A U72C, the self-cleavage came to 0.35.

Consider U1C G30A A45G, for which the self-cleavage amounted to 0.06. For U1C C62A U66C, the self-cleavage worked out at 0.25. Turning to U1C G8C A18G A21G U41C U60C U80C, the self-cleavage is 0.04. Regarding U1C G61U U80C, the self-cleavage stood at 0.19. For the variant U1C U25C U66C U72C, the self-cleavage is 0.47. As for U1C U25C A64G U72C, the self-cleavage came to 0.34. The figure for U1C G16U A56U is 0.09; for U1G A3U C40U U43G U66C it is 0.11.

Consider U1C C50A U80C, for which the self-cleavage came to 0.85. Regarding U1C U41C U72A U78C, the self-cleavage was 0.83. Take U1C G9U A18G A47G U49C A77C: the self-cleavage came to 0.04.

Take U1C U48C C50A A65G U66C U69C: the self-cleavage worked out at 0.05.

Turning to U1C U31G U41C G73C, the self-cleavage is 0.91. Regarding U1C U31C U51A, the self-cleavage was 0.68. The figure for U1C U31C U51G is 0.31; for U1C U43C U69C it is 0.11; for U1C U60A U72A it is 0.18. Turning to U1C C23G U31C C59G G63U U69C, the self-cleavage was found to be 0.03.

Regarding U1C U72C U80C, the self-cleavage was found to be 1.18. The figure for U1C C11G U69A U72C U78C is 0.09; for U1C C29U U60A it is 0.22; for U1C C4G C12U A20G A35U C39U U43C it is 0.26. Consider U1C C4U U25A U41A, for which the self-cleavage came out at 0.28. For U1C G10A A75C U80C, the self-cleavage was 0.31. The figure for U1C U31C U58G is 0.4; for U1C U31C U58C it is 0.3; for U1C G6A U25C U41A A45G U60A A65G it is 0.05.

As for U1C G8A A18G G63U U80C, the self-cleavage is 0.06. U1C U31C A64G: the self-cleavage was 0.35. For the variant U1C U26C U31A U48C A65U, the self-cleavage amounted to 0.08. The figure for U1C C11U C29G A65G U78C is 0.06; for U1C G46U U58A A64U U72C U80C it is 0.07.

Regarding U1G A5U A20G A47G U67C U72C, the self-cleavage was 1.15. The figure for U1C U31C A56G A64U U72C A77G U80G is 0.09; for U1C G8U A20G A28G U43C U60C it is 0.06. Regarding U1C C14A A20U U66A A75G, the self-cleavage came to 0.12. The figure for U1C U26C U43A A47U U54A U74C is 0.21; for U1C G10A A21U U25C A77U it is 0.04. For the variant U1C G7A A28G U41A A47G U80C, the self-cleavage came to 0.04. For U1C G7C A35G, the self-cleavage came to 0.45. Consider U1C G8A U72C U74C, for which the self-cleavage amounted to 0.45.

For U1G A13U U26C U66C, the self-cleavage was determined as 0.11. The figure for U1C U41C A47G U66A is 0.32. With U1G A13U U25C U26C U66C U72C, the self-cleavage came to 0.4. Regarding U1C G10A A15G U41C U43C, the self-cleavage amounted to 0.1. As to U1C C37G C40A G42U, the self-cleavage is 0.28. On to U1C C14U A20U A45U U49C A75U, for which the self-cleavage is 0.03. With U1C U31G A35U U48C U69A, the self-cleavage was 0.16. With U1C C11G C12G C40U, the self-cleavage was 0.19.

Regarding U1C U41C A56U A75C U78C, the self-cleavage was 0.81. In the case of U1C C40U U72C U80C, the self-cleavage is 0.82. The figure for U1C U41A A57G A65G is 0.07; for U1C C11U A47G A56G it is 0.25; for U1C C23U A64G it is 0.45. On to U1G A3G G9U U41G, for which the self-cleavage was found to be 0.5. For U1C C12U A18U U78C, the self-cleavage turned out to be 0.41. For the variant U1C G7A U72C, the self-cleavage turned out to be 0.35. As for U1C G36C C44A A45G U51C A65G U78C, the self-cleavage amounted to 0.12. As for U1C U31C G70C, the self-cleavage was 0.13.

For the variant U1C C32U A35G U41A U80C, the self-cleavage stood at 0.06. In the case of U1C C17U U54C U58A U72A, the self-cleavage is 0.38.

Regarding U1C G42A U54C, the self-cleavage worked out at 0.5. Consider U1C G9U C40U G73U U76A U80C, for which the self-cleavage was 0.05. Take U1C G19A A21G U41A U49A U54C A64G: the self-cleavage came to 0.05. Take U1C C14G U31A U54C U60C A65G U69C: the self-cleavage is 0.05.

With U1C U25C U69A, the self-cleavage worked out at 0.22.

As for U1C C44A U54A U60C, the self-cleavage worked out at 0.33. Consider U1C U43A U58C, for which the self-cleavage was 0.38. As to U1C C12U U25A C40A U54A U72A U78C, the self-cleavage was found to be 0.06. For the variant U1C G33A A35U C39A A75U U80C, the self-cleavage amounted to 0.16. For U1C U41C U60C, the self-cleavage was found to be 0.37. U1C C38U U72C: the self-cleavage stood at 1.1.

Take U1C G10A A13G C40A: the self-cleavage amounted to 0.04. Turning to U1C U25A G33U U51A G63A U72G, the self-cleavage is 0.04. In the case of U1C U31C U41C U58C U69C, the self-cleavage was 0.14. In the case of U1C G7C A56G, the self-cleavage is 0.06. The figure for U1C G6A C11G U41A U76A U78A is 0.08. The figure for U1C G6U G9U U25A U31C U48G is 0.04; for U1C C37G A45C U51C U66A it is 0.07; for U1C G7C U43C it is 0.34. The figure for U1G A18G U48C G55C U74A is 0.23; for U1G A28G A47G U69A C71U it is 0.12. Regarding U1C U25C U31C, the self-cleavage worked out at 0.41.

In the case of U1C U25C A28G U41C U72C U74A, the self-cleavage was determined as 0.05.

Regarding U1C C12A A18U A21G U67A, the self-cleavage came out at 0.07. For U1C U41C U43A U69C, the self-cleavage came out at 0.21.

Turning to U1C G19U A47U U51A, the self-cleavage came out at 0.29.

Take U1C U25C U26G A35G U48C: the self-cleavage stood at 0.42. For the variant U1C G24A A45U U49C A64G, the self-cleavage stood at 0.31. The figure for U1C C38U U67A is 0.3; for U1C U43A G61A it is 0.6. On to U1C U54C U74A U80C, for which the self-cleavage worked out at 1.21.

U1C U74A A75G: the self-cleavage was 1.03. In the case of U1C G16U C27U U67C A77G, the self-cleavage turned out to be 0.05. As for U1C C32U U49A A57G, the self-cleavage is 0.12.

As to U1C U31C C32U U54C U66A, the self-cleavage came to 0.06. Turning to U1C C11U A56G, the self-cleavage came to 0.08. U1C C44A U69C U76C: the self-cleavage was determined as 0.07. The figure for U1C C12U A13G A20G A28G is 0.02; for U1C C39U G46A A64G U69C it is 0.13; for U1C U54A U69C it is 0.84.

As for U1C G7U C23G U51A A64G U72A, the self-cleavage is 0.09. Consider U1C C11U A28U, for which the self-cleavage is 0.3. As for U1C U25C U67C U69A, the self-cleavage turned out to be 0.06.

With U1C G8U C23U A45U U48C U49A U67C, the self-cleavage came to 0.05.

On to U1C G8A A15U U25C C39A A57G U60C, for which the self-cleavage amounted to 0.03. U1G A20U U41C A45U U49A U54C G73C: the self-cleavage worked out at 0.09. Turning to U1G A20G A28G G33A U54C, the self-cleavage stood at 0.06.

Consider U1C U43C A47G A57G, for which the self-cleavage was determined as 0.24. For U1C G33A U72G G73C U78C, the self-cleavage was 0.3. On to U1C G10C A13G C32U C40A U51A A56G, for which the self-cleavage was determined as 0.05.

Consider U1C G10A G19A A35U, for which the self-cleavage worked out at 0.21.

On to U1C U25C U49C U69A, for which the self-cleavage worked out at 0.03.

For U1C U25C U72C U80C, the self-cleavage is 0.47.

Turning to U1C U41A U43C A56G A57G G61U A75G, the self-cleavage came out at 0.04. Consider U1C U25C A47G U60C U72C, for which the self-cleavage was found to be 0.26. As for U1C C38U U49C, the self-cleavage worked out at 0.49. For the variant U1C U41C U58C U69C, the self-cleavage turned out to be 0.28. With U1G A2G G33A, the self-cleavage is 0.44. The figure for U1G A21G U25C U26C U48C G52U is 0.11; for U1C C23G U43A U80C it is 0.06; for U1C U31C U67C it is 0.39. In the case of U1C G16C U31A C32A U51C U67C, the self-cleavage was found to be 0.12. The figure for U1C U51G U74C is 1.25; for U1C G6A A28G C34A A35U U51A it is 0.24; for U1C C12A C14U C17G U58C U60A U66C it is 0.05. On to U1C U25A A45G U48C, for which the self-cleavage was 0.06. For U1C G16A A56U C79A, the self-cleavage came out at 0.26. Consider U1C C11G U26A U49A U66C U74A U80A, for which the self-cleavage is 0.04.
